These results are taken from PubChem BioAssay AID588591 (National Center for Advancing Translational Sciences (NCATS), 2011).

Out of some 390,000 compounds screened, about 4,700 (1.2%) were called active. Not shown: some 4% with an inconclusive outcome. The call rests on the fitted dose curve; in most records, active means well fitted inhibition curve with a large enough effect; inconclusive means small, poorly fitted or top-dose-only effect, or another doubt; inactive means no such curve, though single readings can be large or run the other way. The entries are a selection whose mix differs from that of the whole data set. Where a structure was tested more than once in an assay, its records may differ in their call.
On the % scale 0 is the no-effect control and ±100 the full control effect; potency means the concentration at half of the fitted maximal effect.

In the assay the target is DNA polymerase eta (Homo sapiens) (UniProt Q9Y253). In words: qHTS for Inhibitors of Polymerase Eta. The following applies: recombinant Pol eta, fluorescent DNA replication assay; series mostly up to 114 µM; activity change, negative = inhibition: at the top concentration. The essentials: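 Fluorescent replication assay: 50 nM final substrate added after a 15 min room-temperature compound preincubation with 10 nM enzyme. Signal taken at 0 min and again at 10 min.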
Chain of UniProt Q9Y253 (Q9Y253 whole entry, looked up): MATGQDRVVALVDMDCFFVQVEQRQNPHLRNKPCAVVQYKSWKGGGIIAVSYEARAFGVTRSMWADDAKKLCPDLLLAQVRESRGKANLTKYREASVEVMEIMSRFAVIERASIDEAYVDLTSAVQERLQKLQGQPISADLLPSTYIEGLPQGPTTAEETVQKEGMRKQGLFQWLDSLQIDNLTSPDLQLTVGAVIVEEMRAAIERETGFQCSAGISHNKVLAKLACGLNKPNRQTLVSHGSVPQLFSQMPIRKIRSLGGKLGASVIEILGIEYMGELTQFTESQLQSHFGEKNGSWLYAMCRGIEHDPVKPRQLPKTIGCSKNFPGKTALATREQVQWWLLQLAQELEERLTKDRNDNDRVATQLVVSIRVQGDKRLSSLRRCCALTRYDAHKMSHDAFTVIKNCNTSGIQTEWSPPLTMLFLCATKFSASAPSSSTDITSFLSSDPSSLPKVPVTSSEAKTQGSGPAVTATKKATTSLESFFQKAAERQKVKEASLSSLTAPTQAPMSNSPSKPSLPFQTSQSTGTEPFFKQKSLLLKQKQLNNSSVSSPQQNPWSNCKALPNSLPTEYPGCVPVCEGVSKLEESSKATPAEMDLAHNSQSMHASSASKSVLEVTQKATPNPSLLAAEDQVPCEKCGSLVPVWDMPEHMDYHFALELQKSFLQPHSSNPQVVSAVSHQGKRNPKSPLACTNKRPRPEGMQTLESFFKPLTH
(qHTS replaces the single test concentration by a dilution series.)
For the molecule `Cc1cc(=O)n(CC(=O)NC(C)c2ccccc2)c2c1c(C)nn2C` (configuration not stated), the Potency is active: 39.8 µM. On to `CCOc1ccccc1N(C(=O)CNC(=O)c1ccco1)C(C(=O)NC1CCCC1)c1cccnc1` (configuration not stated), for which the “activity change, negative = inhibition” value was inactive: 10.4%. Take `Cc1ccc(C)c(N2CCN(C(=O)c3nn(C)c4c3CS(=O)(=O)c3ccccc3-4)CC2)c1`: the “activity change, negative = inhibition” value is inactive: -10.5%. Take `Fc1ccc(Nc2c(-c3ccco3)nc3ccccn23)cc1`: the “activity change, negative = inhibition” value was inactive: -1.79%. Regarding `O=C(NN1C(=O)/C(=C/c2ccc(O)c([N+](=O)[O-])c2)SC1=S)c1ccccc1Cl`, the “activity change, negative = inhibition” value is inactive: -17.5%.

Regarding `Cc1ccc(-c2csc3ncnc(Nc4ccc(C(=O)O)cc4)c23)cc1`, the “activity change, negative = inhibition” value was inactive: -8.67%.

For `CC(C)C[C@@H](CNCC(=O)[C@H](Cc1c[nH]c2ccccc12)NC(=O)c1[nH]cnc1C(=O)N[C@H](CN)CC(C)C)NC(=O)c1nc[nH]c1C(=O)N[C@@H](CC(=O)O)C(=O)O`, the Potency is active: 50.1 µM. For the molecule `COc1ccccc1NC(=O)C1=C(C)Nc2nc(SCc3cccc(F)c3)nn2C1c1ccc(C(=O)O)cc1` (configuration not stated), the “activity change, negative = inhibition” value was inactive: 13.4%.

Take `COc1ccc(C(=O)Nc2nc3c(s2)Cc2cc(OC)ccc2-3)cc1`: the “activity change, negative = inhibition” value is inactive: 1.13%. On the same count and under the same terms, next, `COc1cccc(NC(=O)Cn2c(=O)n(CCC(=O)NC3CCN(Cc4ccccc4)CC3)c(=O)c3ccccc32)c1`: inactive: 43.9%. In the case of `O=C(O)C(Cc1ccccc1)NS(=O)(=O)c1ccc2c(c1)OCCO2` (configuration not stated), the “activity change, negative = inhibition” value was inactive: 6.56%. Turning to `c1ccc(Cn2c(SCc3nc4ccccc4s3)nnc2-c2ccco2)cc1`, the Potency was active: 14.1 µM. With `Cc1cc(C)nc(NC(=O)c2c(F)c(F)c(F)c(C(=O)Nc3cc(C)cc(C)n3)c2F)c1`, the “activity change, negative = inhibition” value was inactive: 45.2%. On the same count and under the same terms, next, `Cc1cccc(NC2=NC(C)(C)N=C(N)N2)c1C`: inactive: 6.94%. `Cc1ccc(-c2cc(-c3ccco3)c(C#N)c(=O)[nH]2)cc1`: the Potency was active: 28.2 µM. As for `NS(=O)(=O)c1ccc(-c2ccc(/C=N/Nc3ccc(C(=O)O)cc3)o2)cc1`, the Potency was active: 28.2 µM.

Turning to `O=C(NCc1ccc(OC(F)(F)F)cc1)c1cccc2c1C(=O)c1ccc(N3CCCCC3)cc1S2(=O)=O`, the “activity change, negative = inhibition” value is inactive: 0.241%.

With `CC(CC(=O)Nc1ccc(Br)cc1F)S(=O)(=O)c1ccc2c(c1)NC(=O)CO2` (configuration not stated), the “activity change, negative = inhibition” value is inactive: -14.6%.

For `Cc1ccc(C2=N/C(=C/c3cccs3)C(=O)N2Nc2ccccc2)cc1`, the “activity change, negative = inhibition” value is inactive: 0.293%. In the case of `O=C(O)C(NS(=O)(=O)c1cccc2nsnc12)c1ccccc1` (configuration not stated), the “activity change, negative = inhibition” value is inactive: 45.6%.

For the molecule `Cc1c(N2C(=O)/C(=C/c3ccc(N(C)C)cc3)N(C)C2=S)c(=O)n(-c2ccccc2)n1C`, the “activity change, negative = inhibition” value is inactive: -21%. As for `Cc1ccc(NC(=O)CSc2nc3c([nH]c4ccccc43)c(=O)n2-c2ccccc2)c(C)c1`, the “activity change, negative = inhibition” value was inactive: 17.1%.

`CCCCn1c(NCc2ccc(N(C)C)cc2)nc2ccccc21`: the “activity change, negative = inhibition” value was inactive: -9.12%.

Turning to `CCCc1[nH]n(-c2nc3ccccc3s2)c(=O)c1C=NCCCOC`, the “activity change, negative = inhibition” value is inactive: 33%.

For the molecule `O=C(O)/C(=C\c1ccco1)NC(=O)c1ccccc1`, the “activity change, negative = inhibition” value is inactive: 3.22%. Regarding `O=C(CSc1nnc(CNc2ccc(Cl)cc2)o1)Nc1nc2ccccc2s1`, the “activity change, negative = inhibition” value was inactive: -5.26%.

In the case of `Cc1ccccc1C(=O)Nc1ccc2c(c1)CCCN2C(=O)c1cccs1`, the “activity change, negative = inhibition” value is inactive: -16.3%. Take `CC(=O)C[C@@H](O)CC(=O)[C@H]1OC(=O)[C@@H](C)C/C=C\Cc2ccccc21`: the “activity change, negative = inhibition” value was inactive: -22.6%. As to `O=C(Cc1cccs1)NC1CC(=O)N(c2ccc(Cl)cc2)C1` (configuration not stated), the “activity change, negative = inhibition” value is inactive: 17.4%. Take `CC(=O)N(c1c(C)n(C)n(-c2ccccc2)c1=O)C1(C(=O)NC2CCCC2)CCCCC1`: the “activity change, negative = inhibition” value was inactive: -12.8%. For `N#C/C(=C\C1=C(N2CCOCC2)C(=C/c2cccc([N+](=O)[O-])c2)/CC1)C(=O)Nc1ccccc1F`, the “activity change, negative = inhibition” value is inactive: -27.2%. Consider `CCOc1ccc(OCC)c(Nc2nc3ccc(C(=O)c4ccccc4)cc3n3cnnc23)c1`, for which the “activity change, negative = inhibition” value is inactive: 20.1%. As to `O=C(Nc1nncs1)C1CCCC1`, the “activity change, negative = inhibition” value was inactive: 39.5%. Turning to `C=CC[C@@H](CC(=O)OC(C)(C)C)C(=O)OC[C@H]1CCCN1C(=O)[C@@H](CC=C)CC(=O)N(CCO)Cc1ccccc1`, the “activity change, negative = inhibition” value was inactive: -14.4%. Take `O=C(O)Cc1ccc(C(=O)CSc2ccccc2)s1`: the Potency was active: 20 µM. With `COc1ccc(NC(=O)/C(C#N)=C/C=C/c2ccco2)cc1`, the “activity change, negative = inhibition” value was inactive: -3.09%. On the same count and under the same terms, next, `CCO[C@@H]1OC(C(=O)N2CCN(Cc3ccc4c(c3)OCO4)CC2)=C[C@H](c2ccc(C(F)(F)F)cc2)[C@H]1CCCO`: inactive: -17.7%; `O=C(Nc1ccc(Cl)cc1)N1CCN(c2ccc3nnc(-c4ccc(F)cc4)n3n2)CC1`: inactive: -9.48%. `COc1ccccc1-c1ccc(/C=C2\C=CC(=O)O2)o1`: the Potency was active: 25.1 µM. Consider `Cc1c(Cl)cccc1NS(=O)(=O)c1ccc2c(c1)C1C=CCC1C(c1ccc(C(=O)O)cc1)N2` (configuration not stated), for which the Potency was active: 2 µM.

On to `CCn1cc(C(=O)O)c(=O)c2cc(F)c(N3CCN(S(=O)(=O)c4ccc5c(c4)OCCO5)CC3)cc21`, for which the “activity change, negative = inhibition” value is inactive: 34.1%.

For the molecule `Cc1ccc(OCC(=O)NCC(=O)OCc2cc(=O)n3nc(C(C)C)sc3n2)cc1`, the “activity change, negative = inhibition” value was inactive: 26.9%. As for `CCOC(=O)c1cc(=O)c2ccc(OCC(=O)Nc3ccc(F)cc3)cc2o1`, the “activity change, negative = inhibition” value was inactive: 20.7%. Take `Cc1nn(C(C)C(=O)NC2C(=O)N3C(C(=O)O)=C(CSc4nnnn4C)CSC23)cc1Cl` (configuration not stated): the Potency is active: 20 µM. Turning to `COc1ccc(CC(=O)Nc2ccc(N3CCOCC3)cc2)cc1S(=O)(=O)N1CCOCC1`, the “activity change, negative = inhibition” value was inactive: 30.2%. For `COc1ccc(NC(=O)Cc2cccs2)c(OC)c1`, the “activity change, negative = inhibition” value was inactive: 17.3%. Turning to `COc1cc(C2N(c3ccccn3)C(=O)C3CCCN32)cc(OC)c1OC` (configuration not stated), the “activity change, negative = inhibition” value was inactive: -8.43%. For `Cc1nn(Cc2ccc(F)cc2)c(C)c1NC(=O)c1noc2c1CCc1ccccc1-2`, the “activity change, negative = inhibition” value is inactive: -20%. Consider `N=C1C(c2nc3ccccc3[nH]2)=C(O)CN1c1ccc(CC(=O)O)cc1`, for which the Potency was active: 79.4 µM. On the same count and under the same terms, in the case of `CC(=O)c1ccc(NC(=O)CSc2nnc3c(n2)[nH]c2ccccc23)cc1` it was active: 44.7 µM. With `COc1ccc(N(C)C(=O)c2oc(=O)c3ccccc3c2-c2ccc(C)cc2)c(OC)c1`, the “activity change, negative = inhibition” value is inactive: -6.76%. Turning to `Cc1ccc(CNC(=O)CN2N=C(c3ccc(C)cc3)CCC2=O)cc1`, the “activity change, negative = inhibition” value was inactive: 20.1%. Regarding `O=C(O)c1ccccc1Nc1cccc(OCc2ccc3ccccc3n2)c1`, the “activity change, negative = inhibition” value is inactive: 2.66%. On the same count and under the same terms, in the case of `CCOC(=O)c1ccccc1NC(=O)c1cn(CC)c2nc(C)ccc2c1=O` it was inactive: 38.8%; in that of `C[C@@H](NC(=O)c1cc2c([nH]c3ccccc32)c(-c2ccccc2)n1)C(=O)O`, inactive: 10.8%; in that of `C[C@@H]1COC(=O)[C@H](NC(=O)OCC2c3ccccc3-c3ccccc32)C/C=C\C[C@@H](CC(=O)N[C@@H](CO)Cc2ccccc2)C(=O)N1`, inactive: -11.2%. For the molecule `CCCC(=O)c1cc2c(cc1NC(=O)c1ccccc1F)OCCO2`, the “activity change, negative = inhibition” value is inactive: -19.1%.
